Experimental data taken from the CheMixHub viscosity set.
± gives the uncertainty stated by the source. Further values from the same series stand in other lists.

Test: xn = mol fraction of the nth substance listed

Compound: NCCO + O
- viscosity (298.15 K, 101 kPa, x1 = 0.0313): 1.246 ± 0.008 mPa·s
- viscosity (298.15 K, 101 kPa, x1 = 0.0674): 1.75 ± 0.012 mPa·s
- viscosity (298.15 K, 101 kPa, x1 = 0.1102): 2.554 ± 0.017 mPa·s
- viscosity (298.15 K, 101 kPa, x1 = 0.1626): 3.786 ± 0.025 mPa·s
- viscosity (298.15 K, 101 kPa, x1 = 0.2322): 5.801 ± 0.037 mPa·s
- viscosity (298.15 K, 101 kPa, x1 = 0.3032): 8.459 ± 0.052 mPa·s
- viscosity (298.15 K, 101 kPa, x1 = 0.4194): 13.04 ± 0.08 mPa·s
- viscosity (298.15 K, 101 kPa, x1 = 0.4653): 14.71 ± 0.09 mPa·s
- viscosity (298.15 K, 101 kPa, x1 = 0.5382): 16.83 ± 0.1 mPa·s
- viscosity (298.15 K, 101 kPa, x1 = 0.622): 17.92 ± 0.11 mPa·s
- viscosity (298.15 K, 101 kPa, x1 = 0.7228): 19.19 ± 0.12 mPa·s
- viscosity (298.15 K, 101 kPa, x1 = 0.8446): 19.46 ± 0.13 mPa·s
- viscosity (303.15 K, 101 kPa, x1 = 0.0313): 1.088 ± 0.007 mPa·s
- viscosity (303.15 K, 101 kPa, x1 = 0.0674): 1.49 ± 0.01 mPa·s
- viscosity (303.15 K, 101 kPa, x1 = 0.1626): 3.086 ± 0.02 mPa·s
- viscosity (303.15 K, 101 kPa, x1 = 0.2322): 4.829 ± 0.031 mPa·s
- viscosity (303.15 K, 101 kPa, x1 = 0.3032): 6.924 ± 0.043 mPa·s
- viscosity (303.15 K, 101 kPa, x1 = 0.4194): 10.48 ± 0.06 mPa·s
- viscosity (303.15 K, 101 kPa, x1 = 0.4653): 11.8 ± 0.07 mPa·s
- viscosity (303.15 K, 101 kPa, x1 = 0.5382): 13.39 ± 0.08 mPa·s
- viscosity (303.15 K, 101.3 kPa, x1 = 0.1122): 2.062 ± 0.017 mPa·s
- viscosity (303.15 K, 101.3 kPa, x1 = 0.2278): 4.543 ± 0.036 mPa·s
- viscosity (303.15 K, 101.3 kPa, x1 = 0.3067): 6.862 ± 0.051 mPa·s
- viscosity (303.15 K, 101.3 kPa, x1 = 0.4076): 9.966 ± 0.071 mPa·s
- viscosity (303.15 K, 101.3 kPa, x1 = 0.5412): 13.27 ± 0.093 mPa·s
- viscosity (303.15 K, 101.33 kPa, x1 = 0.0506): 1.27 ± 0.016 mPa·s
- viscosity (303.15 K, 101.33 kPa, x1 = 0.069): 1.48 ± 0.036 mPa·s
- viscosity (308.15 K, 101.3 kPa, x1 = 0.2278): 3.788 ± 0.029 mPa·s
- viscosity (308.15 K, 101.3 kPa, x1 = 0.3067): 5.579 ± 0.043 mPa·s
- viscosity (308.15 K, 101.3 kPa, x1 = 0.4076): 7.974 ± 0.059 mPa·s
- viscosity (308.15 K, 101.3 kPa, x1 = 0.5412): 10.5 ± 0.076 mPa·s
- viscosity (308.15 K, 101.3 kPa, x1 = 0.6257): 11.52 ± 0.082 mPa·s
- viscosity (308.15 K, 101.3 kPa, x1 = 0.7264): 12.1 ± 0.086 mPa·s
- viscosity (308.15 K, 101.3 kPa, x1 = 0.8486): 12.37 ± 0.088 mPa·s
- viscosity (313.15 K, 100 kPa, x1 = 0.2): 2.84 ± 0.05 mPa·s
- viscosity (313.15 K, 100 kPa, x1 = 0.4): 6.48 ± 0.12 mPa·s
- viscosity (313.15 K, 100 kPa, x1 = 0.5): 8.13 ± 0.14 mPa·s
- viscosity (313.15 K, 100 kPa, x1 = 0.7): 9.92 ± 0.18 mPa·s
- viscosity (313.15 K, 101 kPa, x1 = 0.0313): 0.871 ± 0.006 mPa·s
- viscosity (313.15 K, 101 kPa, x1 = 0.2322): 3.473 ± 0.023 mPa·s
- viscosity (313.15 K, 101 kPa, x1 = 0.3032): 4.745 ± 0.031 mPa·s
- viscosity (313.15 K, 101 kPa, x1 = 0.4194): 7.014 ± 0.044 mPa·s
- viscosity (313.15 K, 101 kPa, x1 = 0.5382): 8.808 ± 0.056 mPa·s
- viscosity (313.15 K, 101 kPa, x1 = 0.622): 9.592 ± 0.061 mPa·s
- viscosity (313.15 K, 101 kPa, x1 = 0.7228): 10.32 ± 0.07 mPa·s
- viscosity (313.15 K, 101 kPa, x1 = 0.8446): 10.46 ± 0.07 mPa·s
- viscosity (313.15 K, 101.3 kPa, x1 = 0.1122): 1.573 ± 0.012 mPa·s
- viscosity (313.15 K, 101.3 kPa, x1 = 0.2278): 3.228 ± 0.025 mPa·s
- viscosity (313.15 K, 101.3 kPa, x1 = 0.3067): 4.673 ± 0.036 mPa·s
- viscosity (313.15 K, 101.3 kPa, x1 = 0.4076): 6.564 ± 0.049 mPa·s
- viscosity (313.15 K, 101.3 kPa, x1 = 0.5412): 8.588 ± 0.062 mPa·s
- viscosity (313.15 K, 101.3 kPa, x1 = 0.6257): 9.367 ± 0.067 mPa·s
- viscosity (313.15 K, 101.3 kPa, x1 = 0.7264): 9.85 ± 0.07 mPa·s
- viscosity (313.15 K, 101.33 kPa, x1 = 0.0506): 1.002 ± 0.013 mPa·s
- viscosity (313.15 K, 101.33 kPa, x1 = 0.069): 1.161 ± 0.029 mPa·s
- viscosity (313.15 K, 101.33 kPa, x1 = 0.11): 1.616 ± 0.039 mPa·s
- viscosity (318.15 K, 101.3 kPa, x1 = 0.1122): 1.373 ± 0.011 mPa·s
- viscosity (318.15 K, 101.3 kPa, x1 = 0.2278): 2.732 ± 0.021 mPa·s
- viscosity (318.15 K, 101.3 kPa, x1 = 0.3067): 3.886 ± 0.03 mPa·s
- viscosity (318.15 K, 101.3 kPa, x1 = 0.4076): 5.389 ± 0.042 mPa·s
- viscosity (318.15 K, 101.3 kPa, x1 = 0.5412): 6.936 ± 0.052 mPa·s
- viscosity (318.15 K, 101.3 kPa, x1 = 0.7264): 7.97 ± 0.059 mPa·s
- viscosity (318.15 K, 101.3 kPa, x1 = 0.8486): 8.127 ± 0.06 mPa·s
- viscosity (323.15 K, 100 kPa, x1 = 0.1): 1.21 ± 0.02 mPa·s
- viscosity (323.15 K, 100 kPa, x1 = 0.2): 2.16 ± 0.04 mPa·s
- viscosity (323.15 K, 100 kPa, x1 = 0.3): 3.36 ± 0.06 mPa·s
- viscosity (323.15 K, 100 kPa, x1 = 0.5): 5.65 ± 0.1 mPa·s
- viscosity (323.15 K, 100 kPa, x1 = 0.6): 6.38 ± 0.11 mPa·s
- viscosity (323.15 K, 100 kPa, x1 = 0.7): 6.84 ± 0.12 mPa·s
- viscosity (323.15 K, 100 kPa, x1 = 0.8): 6.94 ± 0.12 mPa·s
- viscosity (323.15 K, 100 kPa, x1 = 0.9): 6.93 ± 0.12 mPa·s
- viscosity (323.15 K, 101.33 kPa, x1 = 0.0506): 0.8163 ± 0.01 mPa·s
- viscosity (323.15 K, 101.33 kPa, x1 = 0.069): 0.936 ± 0.024 mPa·s
- viscosity (323.15 K, 101.33 kPa, x1 = 0.11): 1.277 ± 0.031 mPa·s
- viscosity (323.15 K, 101.33 kPa, x1 = 0.112): 1.26 ± 0.016 mPa·s
